Drawing on publication PMC9911399, “Two distinct binding modes provide the RNA-binding protein RbFox with extraordinary sequence specificity”, this text covers binding signal for 20 molecules.

Where a chain is given by its changes, count along the chain named. The list shows a part of the results.

B1: GAAUAUA (DNA:RNA)
RNA: GGGAGACCGGAAUUCAGAUUGUCCGAAUAUAUUAAAUCCCGUCGUAGCCACCA
DNA 1: CAATCTGAATTCCGGTCTCCC
DNA 2: TGGTGGCTACGACGGGATT
B2: GAAGAAA (DNA:RNA)
RNA: B1 RNA with U28G, U30A
DNA 1: CAATCTGAATTCCGGTCTCCC
DNA 2: TGGTGGCTACGACGGGATT
B3: UACACCA (DNA:RNA)
RNA: B1 RNA with G25U, A27C, U28A, A29C, U30C
DNA 1: CAATCTGAATTCCGGTCTCCC
DNA 2: TGGTGGCTACGACGGGATT
B4: ACAACGU (DNA:RNA)
RNA: B1 RNA with G25A, A26C, U28A, A29C, U30G, A31U
DNA 1: CAATCTGAATTCCGGTCTCCC
DNA 2: TGGTGGCTACGACGGGATT
B5: AGAGAAU (DNA:RNA)
RNA: B1 RNA with G25A, A26G, U28G, U30A, A31U
DNA 1: CAATCTGAATTCCGGTCTCCC
DNA 2: TGGTGGCTACGACGGGATT
B6: AUACGGG (DNA:RNA)
RNA: B1 RNA with G25A, A26U, U28C, A29G, U30G, A31G
DNA 1: CAATCTGAATTCCGGTCTCCC
DNA 2: TGGTGGCTACGACGGGATT
B7: CAUUCUC (DNA:RNA)
RNA: B1 RNA with G25C, A27U, A29C, A31C
DNA 1: CAATCTGAATTCCGGTCTCCC
DNA 2: TGGTGGCTACGACGGGATT
B8: UCUGUCU (DNA:RNA)
RNA: GGGAGACCGGAAUUCAGAUUGUCCUCUGUCUUUAAAUCCCGUCGUAGCCACCA
DNA 1: CAATCTGAATTCCGGTCTCCC
DNA 2: TGGTGGCTACGACGGGATT
B9: UGACAUU (DNA:RNA)
RNA: B1 RNA with G25U, A26G, U28C, A31U
DNA 1: CAATCTGAATTCCGGTCTCCC
DNA 2: TGGTGGCTACGACGGGATT
B10: AAGCCUU (DNA:RNA)
RNA: B1 RNA with G25A, A27G, U28C, A29C, A31U
DNA 1: CAATCTGAATTCCGGTCTCCC
DNA 2: TGGTGGCTACGACGGGATT
B11: CCCUCAU (DNA:RNA)
RNA: B8 RNA with U25C, U27C, G28U, U29C, C30A
DNA 1: CAATCTGAATTCCGGTCTCCC
DNA 2: TGGTGGCTACGACGGGATT
B12: GGUCAUU (DNA:RNA)
RNA: B1 RNA with A26G, A27U, U28C, A31U
DNA 1: CAATCTGAATTCCGGTCTCCC
DNA 2: TGGTGGCTACGACGGGATT
B13: AAGAGCA (DNA:RNA)
RNA: B1 RNA with G25A, A27G, U28A, A29G, U30C
DNA 1: CAATCTGAATTCCGGTCTCCC
DNA 2: TGGTGGCTACGACGGGATT
B14: ACAUAGC (DNA:RNA)
RNA: B1 RNA with G25A, A26C, U30G, A31C
DNA 1: CAATCTGAATTCCGGTCTCCC
DNA 2: TGGTGGCTACGACGGGATT
B15: ACUCAAA (DNA:RNA)
RNA: B1 RNA with G25A, A26C, A27U, U28C, U30A
DNA 1: CAATCTGAATTCCGGTCTCCC
DNA 2: TGGTGGCTACGACGGGATT
B16: CCCGAGC (DNA:RNA)
RNA: B8 RNA with U25C, U27C, U29A, C30G, U31C
DNA 1: CAATCTGAATTCCGGTCTCCC
DNA 2: TGGTGGCTACGACGGGATT
B17: UAAGGGU (DNA:RNA)
RNA: B8 RNA with C26A, U27A, U29G, C30G
DNA 1: CAATCTGAATTCCGGTCTCCC
DNA 2: TGGTGGCTACGACGGGATT
B18: GGACUCA (DNA:RNA)
RNA: B1 RNA with A26G, U28C, A29U, U30C
DNA 1: CAATCTGAATTCCGGTCTCCC
DNA 2: TGGTGGCTACGACGGGATT
B19: GCCGGCC (DNA:RNA)
RNA: B8 RNA with U25G, U27C, U29G, U31C
DNA 1: CAATCTGAATTCCGGTCTCCC
DNA 2: TGGTGGCTACGACGGGATT
B20: CACCUAA (DNA:RNA)
RNA: B1 RNA with G25C, A27C, U28C, A29U, U30A
DNA 1: CAATCTGAATTCCGGTCTCCC
DNA 2: TGGTGGCTACGACGGGATT

The test concerns the target T1, RBFOX1 RRM (Homo sapiens, UniProt Q9NWB1 109-208).
T1 sequence: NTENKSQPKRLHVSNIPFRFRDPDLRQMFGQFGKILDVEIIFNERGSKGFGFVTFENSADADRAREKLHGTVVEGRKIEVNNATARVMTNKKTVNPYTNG
In words: EMSA; HiTS-Eq, 1 nM pool, 10 min; buffer printed only for the single-RNA assays: 10 mM Tris pH 7.5, 150 mM NaCl, 3.4 mM EDTA, 0.001% NP-40, 30 C. The conditions noted are these: tags: His6 N-terminal (pET28a); label: 5' 32P. The method, boiled down: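 Purified wild-type or mutant RbFox RRM at increasing concentrations was equilibrated with 1 nM of 5′-radiolabelled RNA carrying 7 randomized nucleotides for 10 min in 50 µL. Unbound RNA was separated by 8% native PAGE and sequenced. Relative association constants came from read-count changes of each RNA species compared with the control reaction, normalised to the cognate motif.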
Consider B1, for which the binding signal is 0.00348 KA relative to UGCAUGU.
Turning to B2, the binding signal was 0.00856 KA relative to UGCAUGU.
Regarding B3, the binding signal is 0.00208 KA relative to UGCAUGU.
For B4 the value was 0.00192 KA relative to UGCAUGU; for B5, 0.00723 KA relative to UGCAUGU; for B6, 0.00291 KA relative to UGCAUGU.
For B7 the value was 0.00137 KA relative to UGCAUGU; for B8, 0.0121 KA relative to UGCAUGU; for B9, 0.0112 KA relative to UGCAUGU.
Consider B10, for which the binding signal was 0.0057 KA relative to UGCAUGU.
For B11, the binding signal was 0.00127 KA relative to UGCAUGU.
In the case of B12, the binding signal is 0.0139 KA relative to UGCAUGU.
Consider B13, for which the binding signal was 0.00743 KA relative to UGCAUGU.
On to B14, for which the binding signal is 0.00213 KA relative to UGCAUGU.
Regarding B15, the binding signal was 0.00466 KA relative to UGCAUGU.
Consider B16, for which the binding signal is 0.00293 KA relative to UGCAUGU.
For B17 the value was 0.00357 KA relative to UGCAUGU; for B18, 0.00938 KA relative to UGCAUGU.
Regarding B19, the binding signal is 0.0116 KA relative to UGCAUGU.
On to B20, for which the binding signal is 0.00062 KA relative to UGCAUGU.
